Measured values: PubChem BioAssay AID686970 (National Center for Advancing Translational Sciences (NCATS), 2013)
Screen size: about 360,000 compounds; about 6,000 (1.7%) were called active. The inconclusive results got no clear call from the source; some entries with a clear call stand among them for comparison. Calls follow the shape of the dose curve; as a rule, active = well fitted cell-killing curve with a large enough effect; inconclusive = small, poorly fitted or top-dose-only effect, or effect the other way; inactive = flat fitted curve, though single readings scatter. No potency is given beside an inconclusive call; the fits are too rough.

Test: qHTS for induction of synthetic lethality in tumor cells producing 2HG: qHTS for the HT-1080-NT fibrosarcoma cell line;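 also: NT is the 2HG producing partner of a matched IDH1 knockdown line; nearly all actives have a fitted effect of over 55% in size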;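 as to activity, negative = less viability: 0% = DMSO-treated cells and -100% = media-only wells without cells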
Conditions: HT-1080-NT fibrosarcoma viability, CellTiter-Glo ATP luminescence, 48 h; activity, negative = less viability: at 46.1 µM (top of the series) unless noted
Outline: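 Viability of the 2HG-overproducing fibrosarcoma line after 48 hours of compound exposure at 37 degrees C was determined by luminescence with CellTiter-Glo, and concentration-effect curves were then fitted and categorized.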
Potency is read from the fitted curve at half-maximal effect; tags tell the direction and shape of the fitted curve.

SMILES	Potency	activity, negative = less viability
O=C1NC(=Nc2ccc(O)cc2)S/C1=C\C=C\c1ccco1	active: 1.3 µM	–
CS(=O)(=O)c1ccc(-c2cc(NC=O)c3ncc(-c4ccc(F)cc4)n3c2)cc1	inconclusive [cytotoxic, full curve]	–
CCOC(=O)CC(=O)CSc1nc2c(sc(=S)n2-c2ccc(OCC)cc2)c(=O)[nH]1	–	inconclusive: -30.1% [cytotoxic]
CCOc1cc(NC(=S)Nc2cccc(C)c2)c(OCC)cc1NC(=O)CC(C)C	inconclusive [cytotoxic, single point]	–
CN(C)c1ccc(C2N(C)C(=O)c3ccccc3N2C)cc1 (stereo unspecified)	–	inactive: -5.29%
CCOC(=O)C1=C[C@@H](C(C)C)N(S(=O)(=O)c2ccc(C)cc2)[C@H]1c1ccc(C(F)(F)F)cc1	–	inactive: -14.2%
CC(C)OC(=O)c1cc2c(ccn2C)n1CC(=O)N(Cc1ccccc1)c1ccc(F)cc1	inconclusive [cytotoxic, single point]	–
CC1(C(=O)NCc2cccc3ccccc23)CCN1Cc1cc2ccccc2o1 (stereo unspecified)	inconclusive [cytotoxic, single point]	–
COC(=O)c1c(C)[nH]c(C(=O)/C=C/c2ccc(C)cc2)c1C	–	inactive: -1.25%
CS(=O)(=O)c1nc([N+](=O)[O-])nn1CCCc1ccccc1	inconclusive [cytotoxic, single point]	–
O=C(N/N=C/c1cn(-c2ccccc2)nc1-c1cc2ccccc2o1)c1ccncc1	inconclusive [cytotoxic, partial curve]	–
CC(=O)NC(c1ccc(C(C)C)cc1)c1ccc2cccnc2c1O (stereo unspecified)	–	inconclusive: -8.04% [cytotoxic]
CC(C)n1c(SCC(=O)Nc2nc3c(s2)CCCC3)nc2c1c(=O)n(C)c(=O)n2C	inconclusive [cytotoxic, single point]	–
COC(=O)CC(=O)CSc1nc(C)cc(C)c1C#N	–	inactive: -9.94%
Cn1cc(CN2CCC(CO)(CCCc3ccccc3)CC2)c(-c2ccccc2)n1	–	inactive: -29.1%
CN(C)CCNC(=O)c1cccc(-c2cc(NC=O)c3ncc(-c4cccc(C(F)(F)F)c4)n3c2)c1	active: 29.1 µM	–
Cc1sc2nc(C3CC3)nc(SCC(=O)N3c4ccccc4CC3C)c2c1C (stereo unspecified)	inconclusive [cytotoxic, partial curve, poor fit]	–
Cn1cc(CNCc2cn(C)nc2-c2ccc(C3CCCCC3)cc2)cn1	inconclusive [cytotoxic, single point]	–
CCOC(=O)c1c(C)[nH]c(C)c1S(=O)(=O)NCCCN1CCOCC1	–	inconclusive: 18.2%
CNC(=S)N/N=C/c1c(C)nn(-c2ccccc2)c1Cl	inconclusive [cytotoxic, single point]	–
COc1ccc2c(c1)C=CC1(O2)N(CCO)c2ccccc2C1(C)C (stereo unspecified)	inconclusive [cytotoxic, single point]	–
Cc1[nH]nc(N)c1-c1ccccc1	–	inactive: -5.99%
Cc1cc(C)c(OCCCCNCc2ccccc2)c(Cl)c1	active: 15.8 µM	–
CCOc1cc(CNc2ccc(OC)cc2)cc(Br)c1OCC(=O)NC(C)(C)C	inconclusive [cytotoxic, single point]	–

SMILES	Potency	activity, negative = less viability
Cc1ccc(C)c(CSc2nnc([C@@H]3CCCN3)o2)c1	–	inactive: -2.02%
COc1cccc(C=CC(=O)C=CC=Cc2ccccc2)c1	inconclusive [cytotoxic, single point]	–
CC1(S(=O)(=O)O)CC(=O)c2ccccc2C1=O (stereo unspecified)	active: 18.4 µM	–
O=[N+]([O-])c1cccc2ccc(/C=C/c3cccc(Br)c3)nc12	–	inactive: -10.8%
O=C(Nc1cccc(Cl)c1)c1ccc(NCC2CCCO2)c([N+](=O)[O-])c1 (stereo unspecified)	–	inactive: -5.99%
Cc1ccc(C(=O)C(c2ccccc2)N2Cc3ccccc3C2=N)cc1 (stereo unspecified)	inconclusive [cytotoxic, single point]	–
COc1cnc(-c2ccccn2)nc1Oc1c(C)cccc1C	–	inactive: -7.05%
Cc1ccc(NC(C(=O)c2ccccc2)c2ccccc2)cc1 (stereo unspecified)	active: 23.1 µM	–
COc1cc(OC)cc(-c2c(C#Cc3ccsc3)c3cc(-c4ccc5[nH]ccc5c4)ccc3n2C)c1	inconclusive [rising, partial curve, poor fit]	–
O=C(NNC(=S)NC(=O)c1cccs1)c1ccc(O)cc1	–	inconclusive: -33.3% [cytotoxic]
CCCC(=O)OCCNc1cc(SCc2ccco2)c2nonc2c1[N+](=O)[O-]	inconclusive [cytotoxic, single point]	–
O=C(c1ccc(-n2cccc2)cc1)N1CCN(Cc2ccccc2)CC1	–	inactive: -2.69%
CCOC(=O)CN(C(=O)c1snc(C(N)=O)c1N)C(C(=O)NC1CCCCC1)c1ccc(F)cc1 (stereo unspecified)	–	inactive: -0.14%
OC(c1ccccc1)c1ncc(-c2ccc(Oc3ccccc3)cc2)[nH]1 (stereo unspecified)	inconclusive [cytotoxic, partial curve]	–
COc1ccc(OC)c(/C=N/NC(=O)CCN2CCN(C(c3ccccc3)c3ccccc3)CC2)c1	inconclusive [cytotoxic, single point]	–
CC(C)COc1ccc(C(=O)OC2CC(C)(C)OCC2CN(C)C)cc1 (stereo unspecified)	inconclusive [cytotoxic, single point]	–
Cc1cccc(OCCCC(=O)Nc2ccccc2C(F)(F)F)c1	–	inactive: -2.02%
Cc1ccc(C2(CCNC(C)c3cccs3)CCOC(C(C)C)C2)cc1 (stereo unspecified)	active: 16.4 µM	–
CCOC(=O)c1nnc(-c2ccccc2)nc1Sc1c(Cl)cccc1Cl	inconclusive [cytotoxic, partial curve]	–
CCCCOC1NC(=O)NC(=O)C1(F)C(=O)OCC (stereo unspecified)	–	inactive: -15.7%
Cc1ccc(NC(=O)CCN2CCOCC2)cc1C	–	inactive: 4.25%
CCc1ccc(NC(=O)C(C)OC(=O)c2cc(=O)[nH]c3ccc(S(=O)(=O)Nc4ccc(F)cc4)cc23)cc1 (stereo unspecified)	–	inactive: -3.93%
COc1ccc2[nH]c3c(c2c1)CCN1C(=O)C(CC(=O)NCCN2CCOCC2)C[C@H](C(=O)N(C(C)C)C(C)C)[C@@]31C (stereo partly specified)	–	inactive: -0.224%
O=C(c1[nH]ncc1-c1cccc(Br)c1)C1CO1 (stereo unspecified)	active: 25.9 µM	–

SMILES	Potency	activity, negative = less viability
Cc1c(C(=O)NCc2ccc(C(F)(F)F)cc2)sc(=O)n1Cc1cccc(F)c1	inconclusive [cytotoxic, single point]	–
Cc1nn(-c2ccccc2)c(C)c1NC(=O)COc1ccc([N+](=O)[O-])cc1	–	inactive: 16.3%
COc1ccc(C(=O)c2[nH]c(N)c(C(N)=O)c2-c2ccc(OC)c(OC)c2)cc1	–	inactive: 24.9%
CCOC(=O)c1sc(NC(=O)c2cccc(S(=O)(=O)N3CCN(C)CC3)c2)cc1C	inconclusive [cytotoxic, single point]	–
CC[N+]1(C)[C@@H]2CC[C@H]1CC(OC(=O)[C@H]1CCC(C(=O)OC3C[C@H]4CC[C@@H](C3)[N+]4(C)CC)(c3ccccc3)c3ccccc31)C2 (stereo partly specified)	inconclusive [rising, partial curve, poor fit]	–
CC(=O)Nc1ccc(S(=O)(=O)NNc2ccc([N+](=O)[O-])cc2)cc1	inconclusive [cytotoxic, single point]	–
Cc1ccc(-n2c(Cl)c(Cl)nc(Cl)c2=O)cc1	active: 2.59 µM	–
Cc1ccc(S(=O)(=O)N2CCOCC2)cc1NC(=O)C1=NN(c2ccccc2)C(=O)CC1	–	inconclusive: 34.9%
COc1ccc(-c2nc3ccc(C)cn3c2Cc2ccccc2)cc1OC	inconclusive [cytotoxic, single point]	–
CCCCCCCCN1C(=O)[C@H](CC(=O)N2CCN(C(=O)c3ccco3)CC2)C[C@@]2(C(=O)OC)CC(C)(C)CC=C12	inconclusive [cytotoxic, single point]	–
O=C(Nc1ccc(N2CCCCC2)c(Cl)c1)c1ccc2c(c1)OCCO2	inconclusive [cytotoxic, partial curve]	–
O=S(=O)(Nc1ccc(-n2cccc2)cc1)c1ccc(Cl)c(Cl)c1	inconclusive [cytotoxic, single point]	–
CC1=NN(C(=O)Cc2ccccc2)C(O)(c2cccnc2)C1 (stereo unspecified)	inconclusive [cytotoxic, single point]	–
COc1ccc(-c2cc(C(=O)Nc3ccc(C(N)=O)cc3)c3ccccc3n2)cc1OC	inconclusive [cytotoxic, single point]	–
CC[C@H](CO)Nc1nc(Nc2cccc(Cl)c2)c2ncn(C(C)C)c2n1	inconclusive [cytotoxic, single point]	–
CSc1cccc(CN2CCC(CO)(Cc3cccc(C(F)(F)F)c3)CC2)c1	active: 20.6 µM	–
Cc1cccc(C)c1Cn1c(C)c(C(=O)NCc2ccc(C#N)cc2)sc1=O	inconclusive [cytotoxic, single point]	–
COc1cc(N=Nc2ccc(C)cc2S(N)(=O)=O)c(C)cc1N	–	inconclusive: -36.9% [cytotoxic]
COC(=O)[C@]12CCCCC=C1N(CCC1=CCCCC1)C(=O)[C@H](CC(=O)NCCC(C)C)C2	inconclusive [cytotoxic, single point]	–
CCC1CCCCN1CCCNC(=O)c1ccc2nc(N3CCC(C)CC3)sc2c1 (stereo unspecified)	inconclusive [cytotoxic, single point]	–
CCOc1cccc(NC(=O)C2CC(=O)N(C)C2)c1 (stereo unspecified)	–	inactive: 12.5%
COc1cccc(-c2cc(C(=O)Nc3nc4ccccc4s3)c3ccccc3n2)c1	inconclusive [cytotoxic, partial curve]	–
COc1cc(OC)c(C2=NOC(C(=O)NCc3cccnc3)C2)cc1Cl (stereo unspecified)	inconclusive [cytotoxic, single point]	–
